The list shows a part of the results. Construct or isoform of the protein are uncertain.
Target: GST-SBP-ILF3 (Homo sapiens) (UniProt Q12906)
Assay: targeted RNA Bind-n-Seq
Conditions: RBNS binding buffer: 25 mM Tris pH 7.5, 150 mM KCl, 3 mM MgCl2, 0.1% Tween, 0.5 mg/mL BSA, 1 mM DTT; 27 nM protein, 750 pM RNA pool; temperature not stated; high values mean tight binding; sequences stand for … in GGGUAAAAGCGAGGUGAA…CGGGACAAGUAUUAUGGG

Sequence | binding signal (log2 fold change)
UUUUUUUUUUGAGAGCGAAGCGUUCUCCGG [tttttgagapaired] | 0.206
GUGGUGUGUGUUGGCCUCUAACACAUACCA [gtspaired] | -0.687
UUUUUUUUUUGAGAGCGUGACGUUCUCCUG [tttttgagapaired] | 0.525
UUUUUUUUUUGAGACGGCCACCGUCUCCUA [tttttgagapaired] | 0.685
UUUUUUUUUUGAGAGUGCAACAUUCUCCGG [tttttgagapaired] | 0.0454
UUUUUUUUUUGAGAUGGGGUCUAUCUCCUA [tttttgagapaired] | 0.468
UUCCUUCUUCCUCCGUCGGAGGGAGAGGGA [ctspaired] | -0.105
UUUUUUUUUUGAGACUGGAUCAGUCUCCUG [tttttgagapaired] | 0.31
UUUUUUUUUUGAGAAGGAUCCCUUCUCCAG [tttttgagapaired] | -0.0192
GUGUUGUGUGUUGGCGUCUAACACACAGCG [gtspaired] | -0.568
GUUGGUGGUGUUGGAAUCUAACACCGCCAG [gtspaired] | -0.257
GUGUGUUGUGUUGGAUUCUAACACAACGCG [gtspaired] | -0.767
GGUGUUGGUGUUGGCCCCUAACACCAGCGC [gtspaired] | -0.304
GGUGUUGGUGUUGGUCCCUAACACCGACGC [gtspaired] | -0.0467
GUGUGUGGUGUUGGUGUCUAACACCACGCG [gtspaired] | -0.606
UUUUUUUUUUGAGAGCGGGUCGUUCUUCUA [tttttgagapaired] | 0.58
UUUUUUUUUUGAGAGCGUAACGCUCUCCAG [tttttgagapaired] | 0.653
UUUUUUUUUUGAGACGGGAACCGUCUCCUA [tttttgagapaired] | 0.366
UUUUUUUUUUGAGACUGGGCCAGUCUUCUA [tttttgagapaired] | 0.408
UUUUUUUUUUGAGAACGGCACGUUCUCCAG [tttttgagapaired] | 0.112
UUUUUUUUUUGAGAGCGACACGUUCUCCGG [tttttgagapaired] | 0.219
GUUGGUGGUGUUGGAGCCUAACACCAUCAA [gtspaired] | -0.915
UUUUUUUUUUGAGAGGGCUCCCCUCUUCUG [tttttgagapaired] | 0.614
GUUGGUGGUGUUGGAGCCUAACACCGCCAG [gtspaired] | -0.47
UUUUUUUUUUGAGAUCGAAACGGUCUCCUG [tttttgagapaired] | 0.255
UUUUUUUUUUGAGAGGGACGCCCUCUCCUG [tttttgagapaired] | 0.635

Sequence | binding signal (log2 fold change)
UUUUUUUUUUGAGAGCGGAGCGUUCUUCUA [tttttgagapaired] | 0.421
GUGUGGUGUGUUGGUCUCUAACACAUCACG [gtspaired] | -0.641
UUUUUUUUUUGAGAGGGACUCCCUUUCCAG [tttttgagapaired] | 0.237
UUUUUUUUUUGAGAGGGGUACCCUCUCCUG [tttttgagapaired] | 0.675
UUUUUUUUUUGAGACGAGGAUAAUAAAAAA [ttttgagaunpaired] | -0.345
UUUUUUUUUUGAGAUGGACGCCAUCUCCUA [tttttgagapaired] | 0.384
UUUUUUUUUUGAGACCGGUUCGGUCUCCAG [tttttgagapaired] | 0.199
GGUUGGUGUGUUGGCCUCUAACACAUCAAC [gtspaired] | -0.272
UUUUUUUUUUGAGACUGAUUCAGUCUCCUG [tttttgagapaired] | -0.104
UUUUUUUUUUGAGACCGAAACGGUCUUCUA [tttttgagapaired] | 0.25
UUUUUUUUUUGAGAACGAUGCGUUCUCCAG [tttttgagapaired] | -0.0182
UUUUUUUUUUGAGACGGGAACUGUCUUCUA [tttttgagapaired] | 0.566
GUGUGGUGUGUUGGCACCUAACACACUAUA [gtspaired] | -0.542
GGUGGUUGUGUUGGUGUCUAACACAGCUAC [gtspaired] | -0.67
UUUUUUUUUUGAGACGGUGGCCGUCUCCUG [tttttgagapaired] | 1.04
UUUUUUUUUUGAGAGGGAAUCCCUCUCCUG [tttttgagapaired] | 0.258
UUUUUUUUUUGAGAGGGCUACCCUCUCCUA [tttttgagapaired] | 0.508
UUUUUUUUUUGAGAUCGUAGCGAUCUUCUG [tttttgagapaired] | 0.27
UUUUUUUUUUGAGAGGGUGUCCCUCUCCUA [tttttgagapaired] | 0.828
GUGUGUUGUGUUGGCAUCUAACACAACGCA [gtspaired] | -0.418
UUUUUUUUUUGAGAUGGGCGCCAUCUCCUG [tttttgagapaired] | 0.55
UUUUUUUUUUGAGAGGGAACCCCUCUCCGG [tttttgagapaired] | 0.177
UUUUUUUUUUGAGAAGGCGUCCUUCUCCAG [tttttgagapaired] | 0.382
GGUGUUGGUGUUGGUCUCUAACACCGAUAC [gtspaired] | -0.858
UUUUUUUUUUGAGAGCGUGACGUUCUCCGG [tttttgagapaired] | 0.295
UUUUUUUUUUGAGAGGGAAUCCCUUUCCAG [tttttgagapaired] | -0.0117

Sequence | binding signal (log2 fold change)
UUUUUUUUUUGAGAUGGAGUCCGUCUCCGG [tttttgagapaired] | 0.594
UUUUUUUUUUGAGACUGUUCCAGUCUCCUG [tttttgagapaired] | 0.393
UUUUUUUUUUGAGAUGGUAUCCAUCUCCAG [tttttgagapaired] | 0.0113
GUGGUUGGUGUUGGCCUCUAACACCAGCCA [gtspaired] | 0.0214
GUGGUGUGUGUUGGUGUCUAACACAUACCG [gtspaired] | -0.692
UUUUUUUUUUGAGAUGGUGACCAUUUCCAG [tttttgagapaired] | 0.492
UUCUCUCUUCCUCCGGCGGAGGAGGGGAGA [ctspaired] | -0.243
UUUUUUUUUUGAGAGCGAUACGCUCUCCAG [tttttgagapaired] | 0.344
UUUUUUUUUUGAGACCGAGACGGUUUCCUA [tttttgagapaired] | 0.648
GGUGUGUGUGUUGGCCCCUAACACACAUAC [gtspaired] | 0.0603
UUUUUUUUUUGAGAGCGGCACGUUCUCCUG [tttttgagapaired] | 0.527
UUUUUUUUUUGAGAUGGAAGCUAUCUCCAG [tttttgagapaired] | 0.29
UUUUUUUUUUGAGACGGAGACCGUCUCCUG [tttttgagapaired] | 0.69
UUUUUUUUUUGAGAGCGUACCGUUCUCCAG [tttttgagapaired] | 0.61
GGUGUUGGUGUUGGUCUCUAACACCGACGC [gtspaired] | -0.629
GUGGUUGGUGUUGGCUUCUAACACCGACUA [gtspaired] | -0.811
GUGUGUGGUGUUGGAGCCUAACACCGCGCA [gtspaired] | -0.524
UUUUUUUUUUGAGAUCGGGUCGAUCUCCAG [tttttgagapaired] | 0.201
UUUUUUUUUUGAGAGUGAAUCACUCUCCUA [tttttgagapaired] | 0.0482
GUGUGUUGUGUUGGCGCCUAACACAGCACG [gtspaired] | -0.295
UUUUUUUUUUGAGACUGUGACAGUCUCCUG [tttttgagapaired] | 0.663
GUUGGUGGUGUUGGUAUCUAACACCGCCGA [gtspaired] | -0.733
UUCUCUUCUCCUCCAAAGGAGGGGGAGGGA [ctspaired] | -0.38
GUGUGUUGUGUUGGACUCUAACACAGCGCG [gtspaired] | -0.567
GUUGGUGGUGUUGGAGUCUAACACCAUCAA [gtspaired] | -0.525
UUUUUUUUUUGAGAGCGGUACGCUCUCCAG [tttttgagapaired] | 0.0221

Sequence | binding signal (log2 fold change)
UUUUUUUUUUGAGACCGACACGGUUUUCUA [tttttgagapaired] | 0.414
UUUUUUUUUUGAGAUGGGUGCCAUUUCCAG [tttttgagapaired] | 0.632
UUUUUUUUUUGAGACGGAGGCCGUUUCCGG [tttttgagapaired] | 0.855
UUUUUUUUUUGAGACGGGCACCGUCUCCUG [tttttgagapaired] | 0.511
UUUUUUUUUUGAGAUGGUGUCCAUCUCCAG [tttttgagapaired] | 0.481
UUUUUUUUUUGAGAUCGAGCCGAUCUCCUG [tttttgagapaired] | 0.403
UUUUUUUUUUGAGACCGGCACGGUCUCCUG [tttttgagapaired] | 0.615
UUUUUUUUUUGAGAUGGGUACCAUCUCCUA [tttttgagapaired] | 0.507
UUUUUUUUUUGAGAUCGGCGCGAUCUCCUG [tttttgagapaired] | 0.728
UUUUUUUUUUGAGACGGUAUCCGUCUCCUG [tttttgagapaired] | 0.541
UUUUUUUUUUGAGAGGGUACCCCUCUUCUA [tttttgagapaired] | 0.214
UUUUUUUUUUGAGAUGGUGGCCAUCUCCAG [tttttgagapaired] | 0.732
UUUUUUUUUUGAGAUGGGGGCCAUCUCCUA [tttttgagapaired] | 0.792
UUUUUUUUUUGAGACCGGACCGGUCUCCGG [tttttgagapaired] | 0.687
GUGUGUGGUGUUGGCUUCUAACACCACGCG [gtspaired] | -0.476
UUUUUUUUUUGAGACGGGGUCUGUCUCCUG [tttttgagapaired] | 1.07
GUGUGUGGUGUUGGAUCCUAACACCGCAUA [gtspaired] | -0.361
UUUUUUUUUUGAGAGGGUGCCCCUCUCCAG [tttttgagapaired] | 0.585
UUUUUUUUUUGAGAGGGCUCCCUUCUCCGG [tttttgagapaired] | 0.408
GUGUGGUGUGUUGGCUUCUAACACACUACG [gtspaired] | -0.81
UUUUUUUUUUGAGACGGUAACCGUCUCCAG [tttttgagapaired] | 0.235
UUUUUUUUUUGAGACUGCAGCAGUUUCCAG [tttttgagapaired] | 0.746
UUUUUUUUUUGAGACCGGCACGGUUUCCUA [tttttgagapaired] | 0.364
UUUUUUUUUUGAGAGUGAAGCACUCUCCUA [tttttgagapaired] | 0.103
